Data from PubChem BioAssay AID493208 (National Center for Advancing Translational Sciences (NCATS), 2011).
Out of some 44,000 compounds screened, about 340 (0.77%) were called active. Another 5% or so got no clear call; they are omitted. Calls come from the whole dose curve; as a rule, active = well fitted inhibition curve with a large enough effect; inconclusive = small, poorly fitted or top-dose-only effect; inactive = flat fitted curve, though single readings scatter. The list shows a part of the results.

Experiment: Acumen qHTS Assay for Inhibitors of the mTORC1 Signaling Pathway in MEF (Tsc2-/-, p53-/-) Cells: Sytravon;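 note: plate controls were DMSO for no effect and rapamycin for full effect; nearly all actives have a fitted effect of over 50% in size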
Conditions: phospho-rpS6 immunofluorescence/PI, 24 h; series mostly up to 38.3 µM; activity change, negative = inhibition: at the top concentration
Outline: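 Immunofluorescence of rpS6 phosphorylation in Tsc2-/-, p53-/- MEFs after 24 h compound exposure, normalized to propidium iodide signal. Activity is expressed as % positive cells, thresholded with 7.5 nM rapamycin.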

Row | Structure (SMILES) | activity change, negative = inhibition
1 | CCCCN(C)CCCNC(=O)C1CCN(S(=O)(=O)CCC)CC1 | inactive: 8.37%
2 | O=C(Nc1ccccc1C(F)(F)F)c1ncoc1-c1ccco1 | inactive: 0%
3 | COc1ccc(-c2cc(C(F)(F)F)nc(SCCC(=O)Nc3ccc(NC(C)=O)cc3)n2)cc1 | inactive: -11.3%
4 | CCN(CC)c1ccc(CNCCCSc2nnnn2C)cc1 | inactive: 0.771%
5 | COc1ccc(CNC(=O)c2cc(Nc3ccccc3C)nc3ccccc23)cc1 | inactive: -3.22%
6 | COCCNc1nc2c(c(=O)n(C)c(=O)n2C)n1Cc1c(F)cccc1Cl | inactive: -1.05%
7 | Cc1oc2ncn(C)c(=O)c2c1C(=O)N1CCN(c2cccc(C(F)(F)F)c2)CC1 | inactive: -9.35%
8 | COc1ccc(Cl)cc1NC(=O)CSc1cn(CC(=O)N2CCCCC2)c2ccccc12 | inactive: -15.8%
9 | CCOc1ccc(CN2C(=O)c3ccccc3Sc3ccc(C(=O)NCc4ccco4)cc32)cc1 | inactive: 0.484%
10 | Cc1oc(-c2cccc(Cl)c2)nc1CN1CCC(C(=O)NC(C)c2ccccc2)CC1 (configuration not stated) | inactive: -0.497%
11 | CCc1ccc(NC(=O)CC2C(=O)NCCN2C(=O)c2ccc(F)cc2)cc1 (configuration not stated) | inactive: -3.79%
12 | COc1ccc(S(=O)(=O)c2c(Nc3ccccc3F)sc(C(=O)c3cccc(OC)c3)c2N)cc1 | inactive: -26.7%
13 | CCc1ccc(NC(=O)NCCc2c(C)nn(C)c2C)cc1 | inactive: 0%
14 | COc1cccc(C2CC(=O)Nc3c2ccc(C)c3C)c1OC (configuration not stated) | inactive: 4.78%
15 | Cc1cccc(NC(=O)CSc2nnc(NC(=O)Nc3ccccc3)s2)c1C | inactive: 0.24%
16 | CSc1ccc(CNC(=O)Cn2nc(N3CCN(c4ccccc4)CC3)ccc2=O)cc1 | inactive: -5.93%
17 | Cc1ccccc1CNC(=O)C(=O)NCC(c1ccco1)S(=O)(=O)c1cccs1 (configuration not stated) | inactive: -0.478%
18 | COc1cccc(NC(=O)CSc2nnc(-c3cccc(OC)c3)o2)c1 | inactive: -14.8%
19 | O=C(Nc1ccc2nc(SCC(=O)N3CCc4ccccc43)sc2c1)c1ccccc1 | inactive: -3.75%
20 | Cc1ccc2sc(-c3ccc(N)cc3)nc2c1 | inactive: -11.4%
21 | CCc1ccc(-n2c(=O)c3sc4ccccc4c3n(CC(=O)N(CC)Cc3ccccc3)c2=O)cc1 | inactive: -8.79%

Row | Structure (SMILES) | activity change, negative = inhibition
22 | CCC(=O)N1CCc2cc(CNC(=O)c3ccccc3C)ccc21 | inactive: -2.23%
23 | CCCCNC(=O)CSc1nc2nc(C)c(Cc3c(F)cccc3Cl)c(C)n2n1 | inactive: -9.92%
24 | CCOC(=O)c1c(C)[nH]c(C)c1S(=O)(=O)N1CCCC(C(=O)Nc2cc(C)ccc2C)C1 (configuration not stated) | inactive: -0.522%
25 | O=C(NC1CC(=O)N(c2cccc(F)c2)C1)c1ccc2c(c1)OCO2 (configuration not stated) | inactive: 2.15%
26 | Cc1ccc(OCC(=O)Nc2ccccc2C(=O)OCc2cc(=O)n3ccsc3n2)cc1 | inactive: 1.63%
27 | O=C(C1CCC(Cn2c(=O)c3sccc3n(Cc3ccccc3)c2=O)CC1)N1CCOCC1 (configuration not stated) | inactive: -5.69%
28 | CC(=O)c1ccc(NC(=O)COc2ccccc2-c2nc(-c3ccc(C)cc3)no2)cc1 | inactive: -13.2%
29 | Cc1ccc(-c2nnc(Nc3ccccc3O)c3ccccc23)cc1 | inactive: -0.404%
30 | O=C(Nc1cc2c(cc1C(=O)c1ccccc1Br)OCCO2)c1ccccc1 | inactive: 4.02%
31 | Cc1ccc(Cl)cc1N1CCN(C(=O)c2cnn(C)c2C2CCN(C(=O)OC(C)(C)C)CC2)CC1 | inactive: -1.47%
32 | COc1cc(OC)c(NC(=O)N2CCc3c([nH]c4ccccc34)C2c2ccccc2F)cc1Cl (configuration not stated) | inactive: -4.93%
33 | O=C(Nc1ccccc1F)c1ccc(Cn2nc(N3CCN(c4ccccc4)CC3)ccc2=O)o1 | inactive: -2.98%
34 | CCc1cc(C(=O)Nc2c(C)nn(Cc3ccccc3Cl)c2C)no1 | inactive: -4.13%
35 | Cc1cc(C)c(NC(=O)CN2C(=O)c3cccnc3Sc3ccccc32)c(C)c1 | inactive: -3.72%
36 | O=C(CCC(=O)N1CC2CCCN2c2ccccc21)NCc1ccc(F)cc1 (configuration not stated) | inactive: -6.81%
37 | COc1ccc(C(=O)NCC(c2ccc3c(c2)OCO3)N2CCN(C)CC2)cc1 (configuration not stated) | inactive: -3.23%
38 | CCOc1ccc(CCNC(=O)c2nnc(Cc3ccc(Cl)cc3Cl)o2)cc1OCC | inactive: 3.44%
39 | COc1cc(OC)c(N(C)C(=O)c2c(C)oc3ncnc(N4CCCCC4)c23)cc1Cl | inactive: -4.26%
40 | CCn1cc(/C=C(\NC(=O)c2ccc(C)cc2)C(=O)NCCCn2ccnc2)c2ccccc21 | inactive: -15.1%
41 | CCOC(=O)c1cc2c(=O)n3ccccc3nc2n(CC2CCCO2)c1=NC(=O)c1ccccc1C (configuration not stated) | inactive: 7.06%
42 | Cc1ccc2c(=O)cc(C(=O)NCc3ccccc3)oc2c1 | inactive: -16.6%

Row | Structure (SMILES) | activity change, negative = inhibition
43 | COc1ccc(CNC(=O)C2CCCN(S(=O)(=O)c3ccc4c(ccn4C)c3)C2)c(OC)c1 (configuration not stated) | inactive: -7.02%
44 | CCOc1ccc2nc(N3CCN(C(=O)c4ccco4)CC3)sc2c1 | inactive: 1.24%
45 | COc1ccc(NC(C)=O)cc1NC(=O)C1(c2cccs2)CCOCC1 | inactive: -8.39%
46 | CCc1ccc(-n2nc(CO)c(C(=O)NCCc3ccccc3)n2)cc1 | inactive: 2.85%
47 | O=C(CSc1nc2c([nH]c3ccccc32)c(=O)n1-c1ccc(F)cc1)N1CCc2ccccc21 | inactive: -9.09%
48 | Cc1ccc(C)c(N2CCN(C(=O)Cc3c(C(=O)O)c(C)cn3C)CC2)c1 | inactive: 2.34%
49 | Cc1cc(C)cc(-n2c(SCC(=O)N3CCC(C)CC3)nc3c([nH]c4ccccc43)c2=O)c1 | inactive: -21.4%
50 | COc1cccc(C(=O)N2CCCCC2CCN2CCCCC2)c1 (configuration not stated) | inactive: -4.26%
51 | Cc1oc(-c2ccccc2F)nc1CS(=O)CC(=O)NC(C)C (configuration not stated) | inactive: -7.64%
52 | COc1ccc(OC)c(NC(=O)c2cccc3c2C(=O)N(C2CCCCC2)C3)c1 | inactive: 2.04%
53 | Cc1cccc(Cn2c(CNS(=O)(=O)c3ccc(C(C)C)cc3)nc3cccnc32)c1 | inactive: 1.06%
54 | COc1ccc(-c2nc3n(n2)C(c2ccccc2OC)C(C(=O)Nc2cccnc2)=C(C)N3)cc1 (configuration not stated) | inactive: -13.9%
55 | CCOc1ccccc1NC(=O)c1c2c(nc3ccccc13)C(=O)N(C1CCCCC1)C2 | inactive: 0%
56 | CCOc1ccc(C(=O)Nc2ccc3oc(-c4ccc(C)cc4C)nc3c2)cc1Br | inactive: 2.87%
57 | CCOc1ccc(NC(=O)Cn2c(=O)n(CCCCC(=O)NCCc3ccc(Cl)cc3)c(=O)c3ccccc32)cc1 | inactive: -10.4%
58 | O=C(Nc1cccc(Cl)c1)N1CC2CCCN2c2ccccc21 (configuration not stated) | inactive: -15.4%
59 | O=C(C1CCC(CNS(=O)(=O)c2ccc(Br)s2)CC1)N1CCN(c2ccc(F)cc2)CC1 (configuration not stated) | inactive: -16.3%
60 | CCc1ccccc1NC(=O)CC1NCCNC1=O (configuration not stated) | inactive: -3.3%
61 | Cc1ccc(NS(=O)(=O)c2ccc3c(c2)N(C)C(=O)CC(=O)N3C)cc1Cl | inactive: 2.18%
62 | Cc1ccc(-n2c(=O)c3ccc(C(=O)NCc4ccco4)cc3n(CC(=O)Nc3ccc(C)c(F)c3)c2=O)cc1 | inactive: -5.54%
